From article PMC12136788
The other results are listed elsewhere or left out.

T1: UNK ZnF1-6 (called full-length) (human, UniProt Q9C0B0 30-357)
T1 sequence: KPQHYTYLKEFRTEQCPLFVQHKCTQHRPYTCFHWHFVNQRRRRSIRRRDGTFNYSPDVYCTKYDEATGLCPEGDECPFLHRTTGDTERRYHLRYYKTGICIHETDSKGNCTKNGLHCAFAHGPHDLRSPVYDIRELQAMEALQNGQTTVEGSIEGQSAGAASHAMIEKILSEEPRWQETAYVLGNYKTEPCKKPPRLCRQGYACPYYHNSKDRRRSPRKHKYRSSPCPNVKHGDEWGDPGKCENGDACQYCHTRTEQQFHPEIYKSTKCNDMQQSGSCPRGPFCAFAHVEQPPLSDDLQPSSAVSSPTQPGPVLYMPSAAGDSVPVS

B1: chr9:3247878:3248185:-|CDS|ENSG00000080298|control|control|control (ssRNA)
RNA: GGGAGUUCUACAGUCCGACGAUCCGAAUAUAUGUUUUACUUAGUAGAACAUCGUGUUGCUCAGGCAACAGGAGAGACUCCUAUAGCAGUCAUGGGCGAGGUAAGAGAGGCUGAAAGAGCUGUGACCCACUGGGUUAUUAAAAACAACAGAGGAUUGAGCAUCA
B2: chr11:28036422:28036524:-|CDS|ENSG00000121621|unk|total|mutant (ssRNA)
RNA: GGGAGUUCUACAGUCCGACGAUCCAGCUCAAUGAUUCUCUCCGCAAAGAACUUCAGCCUAUUGUAUAUACACCAGAAGACUGCCGAAAAGCUUUUCAAAAUCCGUCUACAGUAACCUUAAUGAAACCAUCAUCAUUUACUACACAACAGAGGAUUGAGCAUCA
B3: chr9:34892658:34893152:-|CDS|ENSG00000187791|control|control|control (ssRNA)
RNA: GGGAGUUCUACAGUCCGACGAUCCCAUCACAGGGCUCCUCUUGCCUAGAGGCUUUGUCCACAUCUAGUGUGUCUUUUAAGCAUAGUCAGGAUCUGGGCUCCCCGAAAUCCAAAGAGCUUUCACUGGCAUCUGUAACUCCAACACAACAGAGGAUUGAGCAUCA
B4: chr1:212100457:212100572:+|CDS|ENSG00000143476|unk|total|mutant (ssRNA)
RNA: GGGAGUUCUACAGUCCGACGAUCAGAAGAGGCUCUGUCUCCUCCGUCUCUCCCAAGCCACCUUCAUCUUUCAAGAUGUCGAUCCGAAACUGGGUGACCCGAACACCUUCCUCAUCACCACCCAUCACUCCACCUGCUUCGGAGCAACAGAGGAUUGAGCAUCA
B5: chr14:71589133:71589262:+|CDS|ENSG00000197555|unk|FALSE|unique (ssRNA)
RNA: GGGAGUUCUACAGUCCGACGAUCGAGAUAGGUGGAGAAGGGGAGAGGAAAAUCAGCCUUUCAAAAUCAAAUUCUGGCUCCUUUAGUGGAUGUGAAAGUGCCUCCUUUGAGUCUACCCUUAGUUCCCAUUGCACAAAUGCAGGACAACAGAGGAUUGAGCAUCA
B6: ENSG00000124766:be:win_1401|CDS_3pUTR|ENSG00000124766|bound_else_gene|NA|bound_elsewhere_windowed (ssRNA)
RNA: GGGAGUUCUACAGUCCGACGAUCCUCCAACCUGGUUUUCACCUACUGAAGGGCGCGCAGGCAGGGAGAAGGGCCGGGGGGGGUAGGAGAGGAGAAAAAAAAAGUGAAAAAAAGAAACGAAAAGGACAGACGAAGAGUUUAAAGCAACAGAGGAUUGAGCAUCA
B7: chr7:16784014:16784129:+|3pUTR|ENSG00000106537|msi1_unk|FALSE|overlapping (ssRNA)
RNA: GGGAGUUCUACAGUCCGACGAUCGAUAAUUUACUUGUAGUCUUUUAUGAUUACACCAAUGUAUUCUAGAAAUAGUUAUGUCUUAGGAAAUUGUGGUUUAAUUUUUGACUUUUACAGGUAAGUGCAAAGGAGAAGUGGUUUCAUCAACAGAGGAUUGAGCAUCA
B8: chr17:39604750:39604851:-|3pUTR|ENSG00000171532|msi1|FALSE|unique (ssRNA)
RNA: GGGAGUUCUACAGUCCGACGAUCAUUUUGGCGGGAGGGGAAGUGGAUUGAGAGGAAAGAGAGAGGCCAAGACAAUUUGUAACUAGAAUCCGUUUUUCCCUUUUCCUUUUUUUAAACAAACAAACAUACAAAAAAAAAAAAAAACAACAGAGGAUUGAGCAUCA
B9: ENSG00000198589:be:win_401|CDS|ENSG00000198589|bound_else_gene|NA|bound_elsewhere_windowed (ssRNA)
RNA: GGGAGUUCUACAGUCCGACGAUCUUGAAAAAGUGCUUGGGAAAAUUGAAAAAGUUGACAAUAUGAUAGCAGAUCUUUUGGUUGACAUGUUGGGAGUGCUGGCUAGCUAUAAUUUGACAGUUCGCGAGCUAAAGCUUUUCUUCACAACAGAGGAUUGAGCAUCA
B10: chr19:3610644:3612413:-|three_prime_utr|ENSG00000105298|control|control|control (ssRNA)
RNA: GGGAGUUCUACAGUCCGACGAUCAGGGGGGUCACCAUUGAGCCUGCCAUGGUGAGCUGAGGAGACACUGGGACAGGCUGGCCUAGGGUCCUGAUGCAACGGAGGGGGCGCUAGGGGCAUCUUUCGAGCACGAGGGUGGCCAGCCAACAGAGGAUUGAGCAUCA
B11: ENSG00000070961:be:win_2501|CDS|ENSG00000070961|bound_else_gene|NA|bound_elsewhere_windowed (ssRNA)
RNA: GGGAGUUCUACAGUCCGACGAUCACUUUACAAGCAUUGUUAAAGCAGUUAUGUGGGGACGAAAUGUCUAUGACAGCAUCUCAAAAUUCCUUCAGUUCCAACUUACUGUUAAUGUAGUAGCAGUGAUUGUUGCUUUUACGGGCGCAACAGAGGAUUGAGCAUCA
B12: chr15:25371268:25371377:-|CDS|ENSG00000114062|unk|FALSE|unique (ssRNA)
RNA: GGGAGUUCUACAGUCCGACGAUCCACAAUGUAUACUCUCGAGAUCCUAAUUAUCUGAAUUUGUUCAUUAUCGUAAUGGAGAAUAGAAAUCUCCACAGUCCUGAAUAUCUGGAAAUGGCUUUGCCAUUAUUUUGCAAAGCGAUGCAACAGAGGAUUGAGCAUCA
B13: chr17:48622902:48623135:-|CDS|ENSG00000170689|control|control|control (ssRNA)
RNA: GGGAGUUCUACAGUCCGACGAUCUACCAGACGCUGGAGCUAGAGAAGGAGUUUCUGUUCAAUAUGUACCUCACCAGGGACCGUAGGCACGAAGUGGCCAGACUCCUCAAUCUGAGUGAGAGACAAGUCAAAAUCUGGUUUCAGCAACAGAGGAUUGAGCAUCA
B14: chr20:35276351:35277713:-|three_prime_utr|ENSG00000126005|control|control|control (ssRNA)
RNA: GGGAGUUCUACAGUCCGACGAUCCUCCUCUCCCCACGUCCCUGCGUCUCUUACACCCCCUCCCACCCGAGGCUCCCCAGAGAUAGCAGAGAAUUCGAAGAGGUCGCCGGGGACUGGAAAGAAGUCCCGGCAGGGCCGCCUUCGCAACAGAGGAUUGAGCAUCA
B15: chr3:27376575:27376676:-|3pUTR|ENSG00000033867|msi1|FALSE|bound_elsewhere (ssRNA)
RNA: GGGAGUUCUACAGUCCGACGAUCCUAUAUAUAAGAAUAUUGUAUGUCAUGCUGUUUAUGUGUGACUACCGGGUUUUUAAAAGUAGUGUCUGGAGUUUGUAAUGAGCACCGUGGAGACUAUGUAUUUAAUGAAAUGCUCUCUUUCAACAGAGGAUUGAGCAUCA
B16: chr19:36448979:36450001:-|CDS|ENSG00000186017|control|control|control (ssRNA)
RNA: GGGAGUUCUACAGUCCGACGAUCCAGAGUUCACAGCUUAUUAGUCAUCAUAGAAUUCAUACUAGUGAGAAACCCUAUGAAUAUAGGGAAUGUGGAAAGAACUUUAAUUAUGACCCACAACUUAUUCAGCAUCAAAAUUUGUACCAACAGAGGAUUGAGCAUCA
B17: ENSG00000124766:be:win_551|CDS|ENSG00000124766|bound_else_gene|NA|bound_elsewhere_windowed (ssRNA)
RNA: GGGAGUUCUACAGUCCGACGAUCCGAGUGGCGGCGGCGCCAACUCCAAACCGGCGCAGAAAAAGAGCUGCGGCUCCAAAGUGGCGGGCGGCGCGGGCGGUGGGGUUAGCAAACCGCACGCCAAGCUCAUCCUGGCAGGCGGCGCAACAGAGGAUUGAGCAUCA
B18: chr15:83017406:83017507:-|3pUTR|ENSG00000064726|msi1|total|mutant (ssRNA)
RNA: GGGAGUUCUACAGUCCGACGAUCGGCCUAAUAAAAUGCCCAAGAAAAUAUUCAGUGCAUUUACCGAGAAGGAUAUUUUGCCGCCGUACCGUAAUGUGUUAUGCCGUACAGUUUUAAAGCUAUAAAUGGAAUUUUGUGUAAAUUCAACAGAGGAUUGAGCAUCA
B19: chr14:74942539:74942640:-|3pUTR|ENSG00000119630|msi1|FALSE|unique (ssRNA)
RNA: GGGAGUUCUACAGUCCGACGAUCGUGUAUUUAUUACCGUCACACUCUUCAGUGACUCCUGCUGGUACCUGCCCUCUAUUUAUUAGCCAACUGUUUCCCUGCUGAAUGCCUCGCUCCCUUCAAGACGAGGGGCAGGGAAGGACACAACAGAGGAUUGAGCAUCA
B20: chr18:722677:722778:-|3pUTR|ENSG00000176105|msi1|total|mutant (ssRNA)
RNA: GGGAGUUCUACAGUCCGACGAUCCCGCGCCCAGCCUACAUUCACUUCUAAAGUCUAUGUAAUGGUGGUCAUUUUUUCCCUUUCCGAAUACAUUAAAUGGUUGAUUUGGGGAGGAAAACUUAUUCUGAAUAUUAACGGUGGUGACAACAGAGGAUUGAGCAUCA
B21: chr22:39522180:39522281:+|CDS|ENSG00000128272|msi1|total|mutant (ssRNA)
RNA: GGGAGUUCUACAGUCCGACGAUCGCUUACGUUGCCAUGAUCCCUCAGUGCAUAAAGGAGGAAGACACCCCUUCAGAUAAUGACCGUGGCAUCUGUAUGAGCCCAGAGUCCUAUCUGGGGUCUCCUCAGCACAGCCCCUCUACCCAACAGAGGAUUGAGCAUCA
B22: chr9:37126384:37126485:+|CDS|ENSG00000147905|unk|FALSE|unique (ssRNA)
RNA: GGGAGUUCUACAGUCCGACGAUCUAUCGAGAUGAGUCAUCUAGUGAACUGAGUGUUGAUAGUGAGGUGGAAUUUCAACUCUAUAGCCAAAUUCAUUAUGCCCAAGAUCUUGAUGAUGUCAUCAGGGAGGAAGAGCAUGAAGAACAACAGAGGAUUGAGCAUCA

target: T1, UNK ZnF1-6 (called full-length); test: nsRBNS (natural sequence RNA bind-n-seq); RBNS binding buffer (assumed for nsRBNS): 25 mM Tris pH 7.5, 150 mM KCl, 3 mM MgCl2, 0.01% Triton X-100, 500 ug/ml BSA, 20 U/ml SUPERase-In, 4 C; UNK is unkempt and MSI1 is Musashi-1; names of the RNAs are library labels; protein concentration not given here; high values mean tight binding

Question: For B1, which binding signal is on record?
Answer: 1.08 enrichment R

Question: For B2, which binding signal is on record?
Answer: 0.38 enrichment R

Question: For B3, which binding signal is on record?
Answer: 0.703 enrichment R

Question: B4 was tested. Which binding signal did it give?
Answer: 0.56 enrichment R

Question: How did the binding signal turn out when B5 was run?
Answer: 1.15 enrichment R

Question: Which binding signal does the source give for B6 here?
Answer: 1.03 enrichment R

Question: With B7 as the binder, how does the binding signal read?
Answer: 1.2 enrichment R

Question: For B8, which binding signal is on record?
Answer: 1.22 enrichment R

Question: B9 was tested. Which binding signal did it give?
Answer: 0.3 enrichment R

Question: For B10, which binding signal is on record?
Answer: 1.42 enrichment R

Question: With B11 as the binder, how does the binding signal read?
Answer: 0.313 enrichment R

Question: How did the binding signal turn out when B12 was run?
Answer: 0.516 enrichment R

Question: B13 was tested. Which binding signal did it give?
Answer: 0.572 enrichment R

Question: B14 was tested. Which binding signal did it give?
Answer: 0.869 enrichment R

Question: B15 was tested. Which binding signal did it give?
Answer: 0.448 enrichment R

Question: How did the binding signal turn out when B16 was run?
Answer: 1.15 enrichment R

Question: Which binding signal does the source give for B17 here?
Answer: 0.701 enrichment R

Question: How did the binding signal turn out when B18 was run?
Answer: 0.415 enrichment R

Question: With B19 as the binder, how does the binding signal read?
Answer: 0.781 enrichment R

Question: For B20, which binding signal is on record?
Answer: 0.385 enrichment R

Question: B21 was tested. Which binding signal did it give?
Answer: 0.659 enrichment R

Question: With B22 as the binder, how does the binding signal read?
Answer: 0.566 enrichment R
